Assay results from PMC9911399, “Two distinct binding modes provide the RNA-binding protein RbFox with extraordinary sequence specificity”.
Substitutions are numbered along the chain they refer to; changes in the protein carry UniProt numbers. Some of the results follow.

B1: GCUCAAC (DNA:RNA)
RNA: GGGAGACCGGAAUUCAGAUUGUCCGCUCAACUUAAAUCCCGUCGUAGCCACCA
DNA 1: CAATCTGAATTCCGGTCTCCC
DNA 2: TGGTGGCTACGACGGGATT
B2: UAGACAG (DNA:RNA)
RNA: B1 RNA with G25U, C26A, U27G, C28A, A29C, C31G
DNA 1: CAATCTGAATTCCGGTCTCCC
DNA 2: TGGTGGCTACGACGGGATT
B3: CGCGAGG (DNA:RNA)
RNA: B1 RNA with G25C, C26G, U27C, C28G, A30G, C31G
DNA 1: CAATCTGAATTCCGGTCTCCC
DNA 2: TGGTGGCTACGACGGGATT
B4: GGUAAAU (DNA:RNA)
RNA: B1 RNA with C26G, C28A, C31U
DNA 1: CAATCTGAATTCCGGTCTCCC
DNA 2: TGGTGGCTACGACGGGATT
B5: CGCGUGA (DNA:RNA)
RNA: GGGAGACCGGAAUUCAGAUUGUCCCGCGUGAUUAAAUCCCGUCGUAGCCACCA
DNA 1: CAATCTGAATTCCGGTCTCCC
DNA 2: TGGTGGCTACGACGGGATT
B6: GUGCGUU (DNA:RNA)
RNA: B1 RNA with C26U, U27G, A29G, A30U, C31U
DNA 1: CAATCTGAATTCCGGTCTCCC
DNA 2: TGGTGGCTACGACGGGATT
B7: UCAAUAU (DNA:RNA)
RNA: B1 RNA with G25U, U27A, C28A, A29U, C31U
DNA 1: CAATCTGAATTCCGGTCTCCC
DNA 2: TGGTGGCTACGACGGGATT
B8: AGUGGAC (DNA:RNA)
RNA: B1 RNA with G25A, C26G, C28G, A29G
DNA 1: CAATCTGAATTCCGGTCTCCC
DNA 2: TGGTGGCTACGACGGGATT
B9: GAUGGUC (DNA:RNA)
RNA: B1 RNA with C26A, C28G, A29G, A30U
DNA 1: CAATCTGAATTCCGGTCTCCC
DNA 2: TGGTGGCTACGACGGGATT
B10: UGGCUGC (DNA:RNA)
RNA: B5 RNA with C25U, C27G, G28C, A31C
DNA 1: CAATCTGAATTCCGGTCTCCC
DNA 2: TGGTGGCTACGACGGGATT
B11: GCCCCUU (DNA:RNA)
RNA: B1 RNA with U27C, A29C, A30U, C31U
DNA 1: CAATCTGAATTCCGGTCTCCC
DNA 2: TGGTGGCTACGACGGGATT
B12: CGGGCUU (DNA:RNA)
RNA: B5 RNA with C27G, U29C, G30U, A31U
DNA 1: CAATCTGAATTCCGGTCTCCC
DNA 2: TGGTGGCTACGACGGGATT
B13: CUGCAAG (DNA:RNA)
RNA: B1 RNA with G25C, C26U, U27G, C31G
DNA 1: CAATCTGAATTCCGGTCTCCC
DNA 2: TGGTGGCTACGACGGGATT
B14: GCCGUCU (DNA:RNA)
RNA: B5 RNA with C25G, G26C, G30C, A31U
DNA 1: CAATCTGAATTCCGGTCTCCC
DNA 2: TGGTGGCTACGACGGGATT
B15: UGGCGAC (DNA:RNA)
RNA: B1 RNA with G25U, C26G, U27G, A29G
DNA 1: CAATCTGAATTCCGGTCTCCC
DNA 2: TGGTGGCTACGACGGGATT
B16: AAUGGAA (DNA:RNA)
RNA: B5 RNA with C25A, G26A, C27U, U29G, G30A
DNA 1: CAATCTGAATTCCGGTCTCCC
DNA 2: TGGTGGCTACGACGGGATT
B17: CCUUUGA (DNA:RNA)
RNA: B5 RNA with G26C, C27U, G28U
DNA 1: CAATCTGAATTCCGGTCTCCC
DNA 2: TGGTGGCTACGACGGGATT
B18: GCAUACG (DNA:RNA)
RNA: B1 RNA with U27A, C28U, A30C, C31G
DNA 1: CAATCTGAATTCCGGTCTCCC
DNA 2: TGGTGGCTACGACGGGATT
B19: GUCUAGA (DNA:RNA)
RNA: B5 RNA with C25G, G26U, G28U, U29A
DNA 1: CAATCTGAATTCCGGTCTCCC
DNA 2: TGGTGGCTACGACGGGATT
B20: GGGUGCU (DNA:RNA)
RNA: B5 RNA with C25G, C27G, G28U, U29G, G30C, A31U
DNA 1: CAATCTGAATTCCGGTCTCCC
DNA 2: TGGTGGCTACGACGGGATT
B21: CUAGCCC (DNA:RNA)
RNA: B5 RNA with G26U, C27A, U29C, G30C, A31C
DNA 1: CAATCTGAATTCCGGTCTCCC
DNA 2: TGGTGGCTACGACGGGATT
B22: AACAUAG (DNA:RNA)
RNA: B5 RNA with C25A, G26A, G28A, G30A, A31G
DNA 1: CAATCTGAATTCCGGTCTCCC
DNA 2: TGGTGGCTACGACGGGATT
B23: ACAUCUU (DNA:RNA)
RNA: B1 RNA with G25A, U27A, C28U, A29C, A30U, C31U
DNA 1: CAATCTGAATTCCGGTCTCCC
DNA 2: TGGTGGCTACGACGGGATT
B24: UCGGCAA (DNA:RNA)
RNA: B5 RNA with C25U, G26C, C27G, U29C, G30A
DNA 1: CAATCTGAATTCCGGTCTCCC
DNA 2: TGGTGGCTACGACGGGATT
B25: GCUUAAC (DNA:RNA)
RNA: B1 RNA with C28U
DNA 1: CAATCTGAATTCCGGTCTCCC
DNA 2: TGGTGGCTACGACGGGATT
B26: CCAUAUU (DNA:RNA)
RNA: B1 RNA with G25C, U27A, C28U, A30U, C31U
DNA 1: CAATCTGAATTCCGGTCTCCC
DNA 2: TGGTGGCTACGACGGGATT
B27: UACUGAG (DNA:RNA)
RNA: B5 RNA with C25U, G26A, G28U, U29G, G30A, A31G
DNA 1: CAATCTGAATTCCGGTCTCCC
DNA 2: TGGTGGCTACGACGGGATT
B28: CCUAUAA (DNA:RNA)
RNA: B5 RNA with G26C, C27U, G28A, G30A
DNA 1: CAATCTGAATTCCGGTCTCCC
DNA 2: TGGTGGCTACGACGGGATT
B29: CUGGCAG (DNA:RNA)
RNA: B5 RNA with G26U, C27G, U29C, G30A, A31G
DNA 1: CAATCTGAATTCCGGTCTCCC
DNA 2: TGGTGGCTACGACGGGATT
B30: CCUCCCG (DNA:RNA)
RNA: B1 RNA with G25C, A29C, A30C, C31G
DNA 1: CAATCTGAATTCCGGTCTCCC
DNA 2: TGGTGGCTACGACGGGATT
B31: CGGGUCA (DNA:RNA)
RNA: B5 RNA with C27G, G30C
DNA 1: CAATCTGAATTCCGGTCTCCC
DNA 2: TGGTGGCTACGACGGGATT

molecular target: T1, RBFOX1 RRM RbFoxmut (Fox-RRM*) (Homo sapiens, UniProt Q9NWB1 109-208, R118D;E147R;N151S;E152T); test: EMSA; HiTS-Eq, 1 nM pool, 10 min; buffer printed only for the single-RNA assays: 10 mM Tris pH 7.5, 150 mM NaCl, 3.4 mM EDTA, 0.001% NP-40, 30 C; conditions: tags: His6 N-terminal (pET28a); label: 5' 32P
T1 sequence: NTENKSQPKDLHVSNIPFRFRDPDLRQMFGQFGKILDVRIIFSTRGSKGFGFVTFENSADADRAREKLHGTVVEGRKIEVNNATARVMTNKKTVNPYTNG
How it was run: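 Purified RbFox RRM, wild type or mutant, was incubated for 10 min in 50 µL with 1 nM of a 5′-radiolabelled RNA pool carrying 7 randomized nucleotides, whose flanks were annealed to DNA oligonucleotides, over a series of increasing protein concentrations. Unbound RNA was resolved on 8% native PAGE, cut out, reverse-transcribed, barcoded by PCR and sequenced on an Illumina HiSeq 2500. Relative association constants were derived from changes in read counts for each RNA species versus the control reaction and normalised to the cognate motif.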

Binder | binding signal
B1 | 0.0746 KA relative to UGCAUGU
B2 | 0.0408 KA relative to UGCAUGU
B3 | 0.108 KA relative to UGCAUGU
B4 | 0.0579 KA relative to UGCAUGU
B5 | 0.112 KA relative to UGCAUGU
B6 | 0.146 KA relative to UGCAUGU
B7 | 0.0958 KA relative to UGCAUGU
B8 | 0.0881 KA relative to UGCAUGU
B9 | 0.166 KA relative to UGCAUGU
B10 | 0.194 KA relative to UGCAUGU
B11 | 0.0605 KA relative to UGCAUGU
B12 | 0.0788 KA relative to UGCAUGU
B13 | 0.0851 KA relative to UGCAUGU
B14 | 0.0615 KA relative to UGCAUGU
B15 | 0.0748 KA relative to UGCAUGU
B16 | 0.11 KA relative to UGCAUGU

Binder | binding signal
B17 | 0.0835 KA relative to UGCAUGU
B18 | 0.137 KA relative to UGCAUGU
B19 | 0.0876 KA relative to UGCAUGU
B20 | 0.115 KA relative to UGCAUGU
B21 | 0.089 KA relative to UGCAUGU
B22 | 0.0789 KA relative to UGCAUGU
B23 | 0.0823 KA relative to UGCAUGU
B24 | 0.0654 KA relative to UGCAUGU
B25 | 0.0945 KA relative to UGCAUGU
B26 | 0.0844 KA relative to UGCAUGU
B27 | 0.0893 KA relative to UGCAUGU
B28 | 0.103 KA relative to UGCAUGU
B29 | 0.117 KA relative to UGCAUGU
B30 | 0.0557 KA relative to UGCAUGU
B31 | 0.0952 KA relative to UGCAUGU
